Measured values as given in PubChem BioAssay AID1240 (Sanford-Burnham Center for Chemical Genomics, 2008).
About 800 (1.6%) of roughly 50,000 compounds showed an effect of 50% or more. This is one part of the list.

Target: Bcl-2-like protein 10 (Homo sapiens) (UniProt Q9HD36)
Experiment: Phenotype converters, Bcl-B/TR3 peptide binding displacement, primary biochemical FP (AID 1240);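 note: 0% = Bcl-B with tracer peptide and DMSO and 100% = tracer peptide lacking Bcl-B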
Details: GST-Bcl-B / FITC-TR3 peptide fluorescence polarization; stronger effect = higher value; compound at 3.75 mg/L

Sequence of UniProt Q9HD36 (Q9HD36 whole entry, looked up): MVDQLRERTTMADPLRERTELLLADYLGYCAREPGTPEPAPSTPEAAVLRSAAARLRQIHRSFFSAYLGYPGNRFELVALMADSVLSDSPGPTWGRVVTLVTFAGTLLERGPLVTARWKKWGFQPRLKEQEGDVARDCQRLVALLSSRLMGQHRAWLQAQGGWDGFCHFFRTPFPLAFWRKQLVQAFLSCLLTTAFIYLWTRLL

| SMILES | displacement |
| --- | --- |
| CCN(CC)c1ccc(C(NC(C)=O)NC(C)=O)cc1 | 15.6% |
| O=C(Nc1cc(-c2ccc(F)cc2)[nH]n1)c1cccs1 | 8.8% |
| COC(=O)c1c(C)oc2ccc(OCc3ccccc3Cl)cc12 | 9.4% |
| CC(c1ccco1)N(C(=O)c1ccc([N+](=O)[O-])cc1)c1ccccn1 (stereo not drawn) | 4.5% |
| O=C1NC(=S)S/C1=C/c1ccc(-c2ccc(C(=O)O)c(Cl)c2)o1 | -138% |
| CCOC(=O)C(CCOCCOc1c(C)cc(Cl)cc1C)C(=O)OCC | -9.7% |
| O=C(Nc1c[nH]c(=O)[nH]c1=O)c1ccc(Cl)c(Cl)c1 | 5.6% |
| CCCC1=C(C(=O)OCC)C(c2ccccc2Cl)NC(=O)N1 (stereo not drawn) | 5.6% |
| O=C(Nc1ccc(S(=O)(=O)Nc2ncccn2)cc1)c1cccc(Br)c1 | 17.4% |
| O=C(O)C(Cc1ccccc1)N=C(NS(=O)(=O)c1ccccc1)c1ccccc1 (stereo not drawn) | -2.1% |
| Cc1ccc(N(CC(=O)NC2CCCC2)S(=O)(=O)c2ccc(F)cc2)cc1 | 1.4% |
| Cc1cccn2c(=O)c(/C=C3\SC(=S)N(CC4CCCO4)C3=O)c(NCCCn3ccnc3)nc12 (stereo not drawn) | 3.5% |
| COc1cc(C=C2C(=O)NC(=S)NC2=O)ccc1OCc1ccc(Cl)cc1 | -4.6% |
| CCN(CC)C(=O)CN(c1cc(Cl)cc(Cl)c1)S(C)(=O)=O | 10% |
| O=C(Nc1ccc2c(c1)OCO2)c1cnn2c1NC(c1cccs1)CC2C(F)(F)F (stereo not drawn) | 3.6% |
| Cc1ccc(C(=O)Nc2ccc(C(N)=O)cc2)cc1[N+](=O)[O-] | 0.4% |
| O=C1C(=C2c3ccccc3C(=O)C2C2c3ccccc3Oc3ccccc32)C(=O)c2ccccc21 (stereo not drawn) | 15% |
| CC(C)Cc1ccc(C(=O)NCC2OCCc3ccccc32)cc1 (stereo not drawn) | -6% |
| COc1ccccc1NC(=O)c1cnn(-c2ccccc2)c1NC(C)=O | -11.2% |
| CCOC(=O)C(=CNc1ccc(O)cc1)C(=O)OCC | -5.8% |
| COc1ccc(/C=C2\C(=O)NC(=O)N(c3cc(C)cc(C)c3)C2=O)cc1I | 9.1% |
| N#C/C(=C\c1ccco1)c1nc(-c2ccccc2)cs1 | 58.3% |

| SMILES | displacement |
| --- | --- |
| COC(=O)C1=C(C)N(C)C(C)=C(C(=O)OC)C1c1ccc(F)c(Br)c1 | -3.1% |
| Cc1ccc(C(O)(C(=O)NCc2ccccc2)c2ccc(C)cc2)cc1 | 1.8% |
| CCOC(=O)C1=C(C)N=c2s/c(=C\c3c(OC)ccc4ccccc34)c(=O)n2C1c1ccc2c(c1)OCO2 (stereo not drawn) | -1.2% |
| CCCOc1ccc(/C=N/N2CCN(Cc3ccccc3Cl)CC2)cc1 | 14.3% |
| Cc1ccc(-c2ccccc2N)o1 | 6.5% |
| O=C(CSc1nnc(-c2ccc(Cl)cc2)n1-c1ccccc1)N/N=C/c1ccc([N+](=O)[O-])cc1 | 1.8% |
| Cc1c(CN(C)C)c2c(n1Cc1ccccc1)C(=O)c1ccccc1-2 | 6.2% |
| Cc1ccc(N=Nc2cc(-c3ccccc3)sc2O)c(C)c1 | -6% |
| C/C(=N\NC(=O)c1ccccn1)c1ccco1 | -3.1% |
| CC(=O)N/C(=C\c1ccccc1)C(=O)N1CCCCCC1 | -7.3% |
| CCC(Oc1ccccc1)C(=O)Nc1ccc(Cl)c([N+](=O)[O-])c1 (stereo not drawn) | -11.8% |
| COc1cc(C=NN2CCN(c3ccccn3)CC2)ccc1OCc1ccccc1 | -10.1% |
| CCc1ccc(/C=C(/NC(C)=O)C(=O)O)s1 | -5.2% |
| Cc1ccc(N2C(=O)c3cccc4c(C(=O)O)ccc(c34)C2=O)cc1 | 1.2% |
| COC(=O)c1ccc(Oc2cc(C)nc(-n3nc(C)cc3C)n2)cc1 | -5.2% |
| Cc1cccc(OCC(=O)Nc2cccc(C(F)(F)F)c2)c1C | -5.1% |
| Cc1ccc(C(=O)Nc2cccc(C(F)(F)F)c2)o1 | -1.9% |
| O=C(Nc1cccnc1)c1ccc(-c2ccccc2[N+](=O)[O-])o1 | 48.4% |
| CC(=O)CC(C)(C)Nc1ccccc1 | 12.4% |
| CC(=O)NNc1nc2c(c(=O)[nH]c(=O)n2C)n1CCc1ccccc1 | 11% |
| CCCc1[nH]nc2c1C(C1CCCCC1)C(C#N)=C(N)O2 (stereo not drawn) | -12.1% |
| CCc1c(C)sc(NC(=O)Cc2ccc(Cl)cc2)c1C#N | 0.1% |

| SMILES | displacement |
| --- | --- |
| CN1CCN(CCC(=O)N/N=C/c2cccnc2)CC1 | -12.3% |
| COC(=O)c1ccc(OCC(=O)Nc2nc3c(s2)CCCC3)cc1 | 2.4% |
| O=C1NC(=S)S/C1=C/c1ccc(Oc2ccc(C(F)(F)F)cc2[N+](=O)[O-])c(Cl)c1 | 2.8% |
| COc1ccc(CN2CCN(c3c4c(c(C#N)c5nc6ccccc6n35)CCC4)CC2)cc1 | -6% |
| CCc1ccc(NC(=O)COc2ccc(Br)cc2)cc1 | -1.3% |
| N/C(=N\S(=O)(=O)c1ccc(Cl)cc1)c1ccc(Cl)cc1 | 6.4% |
| Cc1cccn2c(=O)c(/C=N/NC(=O)c3ccccc3O)c(N3CCCCC3)nc12 | 130% |
| O=C(Nc1ccccn1)c1ccc2c(c1)C(=O)N(N1C(=O)c3ccccc3C1=O)C2=O | 2.7% |
| Cc1cc(C)c2nc3s/c(=C\c4ccccc4)c(=O)n3c2c1 | 7% |
| Cc1c(NC(=O)c2cccc3c2C(=O)c2cc(I)ccc2-3)c(=O)n(-c2ccccc2)n1C | 5.8% |
| COc1ccc(C2/C(=C(/O)c3ccccc3)C(=O)C(=O)N2CC2CCCO2)cc1 (stereo not drawn) | 6.6% |
| COc1ccc(OC)c(CN2CCN(C(=O)c3cccc(Cl)c3)CC2)c1 | -33.4% |
| COc1cc(OC)c([N+](=O)[O-])cc1C=O | 14.8% |
| Cc1ccccc1OCCNc1cc(N2CCCCC2)ccc1[N+](=O)[O-] | 7.3% |
| O=[N+]([O-])c1cccc2c1=C1C(Cl)=CC=C1C=2 | 7.8% |
| Cc1ccc([N+](=O)[O-])cc1NC(=O)c1c(-c2ccccc2)noc1C | 1% |
| CC1(C)CCCC2=C1CC1C(=O)N(c3ccccc3)C(=O)C1C2 (stereo not drawn) | 1.9% |
| COc1ccc2oc(=O)c(-c3cnc(Nc4ccccc4C)s3)cc2c1 | 10.1% |
| Cc1cc(C=C2C(=O)NC(=S)NC2=O)c(C)n1-c1ccc(N2CCOCC2)cc1 | 22.3% |
| CC(=O)NC(=Nc1nc(C)c2cc(C)cc(C)c2n1)NC(C)=O | 8.1% |
| Cc1ccc(C(=O)N/C(=C\c2sccc2C)C(=O)NCc2ccco2)cc1 | 7.6% |
| COc1ccc(N(CC(=O)NCc2cccnc2)S(=O)(=O)c2ccccc2[N+](=O)[O-])c(OC)c1 | 13.1% |

| SMILES | displacement |
| --- | --- |
| O=C(/C=C/c1ccco1)NCc1ccc(Cl)cc1 | -13.9% |
| CC(=O)N(c1ccccc1)c1nnc(C)s1 | -0.3% |
| CC1=C(C(=O)OCCCc2ccccc2)C(c2ccccc2[N+](=O)[O-])CC(=O)N1 (stereo not drawn) | -9.2% |
| COc1ccc(N2C(=O)CC(SC(=N)N3N=C(c4cccs4)CC3c3ccc(Br)cc3)C2=O)cc1 (stereo not drawn) | 3.5% |
| CCOC(=O)c1c(-c2ccc(Cl)cc2)csc1NC(=O)COc1ccccc1OC | 5.3% |
| COc1ccc(N=Cc2c(O)n(-c3ccccc3Cl)c(=O)[nH]c2=O)cc1 | 0% |
| CCOC(=O)c1cnn(-c2ccccc2)c1NC(=O)c1ccc(C)cc1 | 7.2% |
| Cc1cc(Cn2ccnc2)c(C)cc1Cn1ccnc1 | 3.2% |
| Cc1ccc(C(C)C)c(OCC(=O)Nc2ccc(Cc3ccncc3)cc2)c1 | -1.9% |
| COc1ccc(N(CC(=O)Nc2ccc(C)c(C)c2)S(C)(=O)=O)cc1 | 0.1% |
| O=C(/C=C/c1ccc(-c2cccc(Br)c2)o1)c1ccco1 | 11.8% |
| O=C(Nc1ccc(S(=O)(=O)Nc2nccs2)cc1)c1ccc2ccccc2c1 | 8% |
| N/C(=N\OC(=O)c1cccc(Br)c1)c1ccccn1 | 1.1% |
| Cc1cc(C)nc(N2CCN(c3ncnc4c3cnn4-c3ccccc3)CC2)n1 | 2.6% |
| O=c1sc(/C=C2/C=Nc3ccccc32)c(O)n1-c1ccccc1 | -1% |
| CC1CCc2cc(F)ccc2N1C(=O)c1ccc(Cl)c(Cl)c1 (stereo not drawn) | -2.2% |
| CN(C)/C=C1\N=C(c2ccccc2Br)OC1=O | -1.7% |
| Cc1ccc(NC(=O)COc2ccc(Cl)cc2Cl)cc1N(C)C | 7.8% |
| O=C(COc1ccccc1Cl)NNC(=O)c1cccnc1 | -18.1% |
| O=C1c2ccccc2NC(c2ccc(Cl)c(Cl)c2)N1Cc1ccccc1 (stereo not drawn) | 15.9% |
| Cc1nc2c(c(C)nn2-c2ccccc2)c(C)c1C | -12.2% |
| Cc1cnn(-c2cc(C(F)(F)F)nc(-c3ccccc3)n2)c1 | -8.4% |

| SMILES | displacement |
| --- | --- |
| COc1cc(/C=C2/SC(=S)N(CC(=O)NCCCN3CCOCC3)C2=O)cc(OC)c1OC | 15% |
| COc1ccc(C2CC(c3ccccc3)=NN2c2ccccc2OC)cc1 (stereo not drawn) | 8.8% |
| CC(C)(C)c1ccc(C(=O)Oc2ccc(/C=N/O)cc2)cc1 | 1.4% |
| Cc1ccc(-n2nc3cc(C)c(NC(=O)Cc4ccccc4)cc3n2)cc1 | 3.7% |
| Cc1cc(NC(=O)c2ccco2)ccc1NC(=O)c1ccccc1 | -2.1% |
| CCOC(=O)c1c(NC(=O)c2cc(OC)cc(OC)c2)sc(C)c1CC | 20.4% |
| CCN(CC)CCCCCOc1cc(C)cc(C)c1C | -8.7% |
| CCOC(=O)CC(=O)Nc1nc2ccc(Br)cc2s1 | 4.4% |
| O=S(=O)(NCCSc1nc2ccccc2o1)c1ccccc1 | 15.1% |
| CC1=NNC(=O)C1CC(=O)N/N=C/c1cc(Br)ccc1O (stereo not drawn) | -21.5% |
| O=[N+]([O-])c1ccc(Cl)c(/C=N/N2CCN(c3ccccc3)CC2)c1 | 8.4% |
| Cc1ccc(/C(O)=C2\C(=O)C(=O)N(c3nncs3)C2c2cccc([N+](=O)[O-])c2)cc1 (stereo not drawn) | 10.3% |
| O=[N+]([O-])c1cccc(CONc2ncnc3nonc23)c1 | 7.5% |
| O=C(O)c1ccc(N2C(=O)CC(N3CCC(Cc4ccccc4)CC3)C2=O)cc1 (stereo not drawn) | 2.8% |
| Clc1ccccc1COc1cccc(/C=N/Nc2nc(N3CCOCC3)nc(N3CCOCC3)n2)c1 | 2.6% |
| CC(C)Nc1nc(-c2ccc(Cl)cc2Cl)nc2ccccc12 | -20.1% |
| Cc1ccc(S(=O)(=O)/N=C2/NC(=O)/C(=C/c3cc([N+](=O)[O-])ccc3O)S2)cc1 | -17.6% |
| Cc1cc(NC(=O)c2ccc(C(=O)Nc3cc(C)c(O)c(C)c3)cc2)cc(C)c1O | -2.3% |
| O=C(O)CCP(=O)(O)C(O)c1ccccc1 (stereo not drawn) | 11.4% |
| CC(=O)Nc1ccc(N2Cc3ccccc3C2)cc1 | -4.7% |
